Assay [1] addresses GST-tagged full-length PARP-1 (FL) (UniProt P09874). The assay is described as follows: pull-down; GSH-agarose beads; 1 mg extract of HeLa cells co-transfected with GST-PARP-1 constructs and p21-GFP, treated with 25 μM MNNG (for XRCC1 and pol ß also with 10 μM Olaparib: reduced); 50 mM Tris-HCl pH 8.0, 2.5 mM MgCl2, 75 mM KCl, 5 mM DTT; 1 h, 4°C; Western blot. (A western blot detects proteins with antibodies after separation by electrophoresis.)

By UniProt entry, the sequences of proteins in these tests, tags left out.
UniProt P09874: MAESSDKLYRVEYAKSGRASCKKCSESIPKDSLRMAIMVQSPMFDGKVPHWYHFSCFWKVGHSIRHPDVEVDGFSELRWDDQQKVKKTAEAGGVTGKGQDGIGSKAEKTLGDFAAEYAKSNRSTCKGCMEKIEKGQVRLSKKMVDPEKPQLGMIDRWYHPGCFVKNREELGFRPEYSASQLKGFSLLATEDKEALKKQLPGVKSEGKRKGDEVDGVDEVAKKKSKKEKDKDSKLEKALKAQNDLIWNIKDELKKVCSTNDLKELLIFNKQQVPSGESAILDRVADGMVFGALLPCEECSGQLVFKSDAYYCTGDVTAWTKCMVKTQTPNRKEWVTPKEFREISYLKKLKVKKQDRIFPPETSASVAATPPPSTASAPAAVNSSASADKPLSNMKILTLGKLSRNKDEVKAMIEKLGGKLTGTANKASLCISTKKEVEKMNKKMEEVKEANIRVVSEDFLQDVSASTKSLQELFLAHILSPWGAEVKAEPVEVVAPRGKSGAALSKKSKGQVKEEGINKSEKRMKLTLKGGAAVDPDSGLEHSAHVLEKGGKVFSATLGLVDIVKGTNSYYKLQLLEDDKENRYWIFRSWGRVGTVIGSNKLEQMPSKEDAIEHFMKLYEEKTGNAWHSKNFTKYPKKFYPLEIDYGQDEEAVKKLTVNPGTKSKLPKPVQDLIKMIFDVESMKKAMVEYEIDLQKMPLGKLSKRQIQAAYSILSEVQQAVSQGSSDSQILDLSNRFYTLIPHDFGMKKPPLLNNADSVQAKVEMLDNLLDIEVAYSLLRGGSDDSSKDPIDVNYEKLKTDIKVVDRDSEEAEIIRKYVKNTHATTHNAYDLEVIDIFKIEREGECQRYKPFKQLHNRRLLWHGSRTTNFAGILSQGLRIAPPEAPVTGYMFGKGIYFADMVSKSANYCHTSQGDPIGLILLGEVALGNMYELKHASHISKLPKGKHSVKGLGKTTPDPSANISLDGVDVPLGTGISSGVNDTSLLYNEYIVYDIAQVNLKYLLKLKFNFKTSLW
UniProt P38936: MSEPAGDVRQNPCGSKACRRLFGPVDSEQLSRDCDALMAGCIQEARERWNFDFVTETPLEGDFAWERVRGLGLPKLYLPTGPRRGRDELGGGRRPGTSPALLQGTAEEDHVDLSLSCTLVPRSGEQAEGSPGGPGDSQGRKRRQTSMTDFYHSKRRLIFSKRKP
UniProt P18887: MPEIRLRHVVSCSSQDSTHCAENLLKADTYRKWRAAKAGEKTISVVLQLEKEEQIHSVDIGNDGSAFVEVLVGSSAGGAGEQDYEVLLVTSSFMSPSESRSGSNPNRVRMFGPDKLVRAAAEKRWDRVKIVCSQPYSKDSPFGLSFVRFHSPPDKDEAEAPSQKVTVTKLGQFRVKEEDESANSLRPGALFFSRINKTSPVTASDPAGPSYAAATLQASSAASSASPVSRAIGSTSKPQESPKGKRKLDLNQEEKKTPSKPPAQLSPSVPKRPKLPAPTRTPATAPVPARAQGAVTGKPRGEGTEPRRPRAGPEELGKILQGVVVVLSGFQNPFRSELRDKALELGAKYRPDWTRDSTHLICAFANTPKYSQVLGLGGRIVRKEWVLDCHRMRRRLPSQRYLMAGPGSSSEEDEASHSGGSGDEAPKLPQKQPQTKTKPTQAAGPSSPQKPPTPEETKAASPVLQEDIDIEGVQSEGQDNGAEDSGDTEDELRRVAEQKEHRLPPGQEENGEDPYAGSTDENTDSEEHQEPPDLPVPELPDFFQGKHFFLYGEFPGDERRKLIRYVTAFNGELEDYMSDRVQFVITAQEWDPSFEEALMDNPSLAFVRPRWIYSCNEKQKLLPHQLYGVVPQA

Assay [2] addresses auto-PARylated PARP-1, endogenous in MNNG-treated LF-1 human fibroblasts (human (endogenous in LF-1)) (UniProt P09874). The assay is described as follows: co-IP; polyclonal anti-PAR antibody pre-bound to protein-G magnetic beads; nuclear extracts (RIPA) of quiescent LF-1 fibroblasts, untreated or treated 30 min with 25 μM MNNG; 3 h, 4°C; Western blot for PAR, PARP-1, p21.
For assay [3], the target named is Poly(ADP-ribose) polymerase-1 (PARP-1), endogenous in LF-1 human fibroblasts (human (endogenous in LF-1)) (UniProt P09874). In words: condition: only cells pre-treated with 10 μM Olaparib before MNNG; co-IP; monoclonal anti-PARP-1 (F1-23) pre-bound to protein-G magnetic beads; nuclear extracts of LF-1 fibroblasts pre-treated with 10 μM Olaparib before 25 μM MNNG; Western blot.

For assay [4] the target is unchanged. The assay is described as follows: co-IP; monoclonal anti-PARP-1 (F1-23) pre-bound to protein-G magnetic beads; nuclear extracts (RIPA) of LF-1 fibroblasts treated 30 min with 25 μM MNNG alone (for XRCC1 and pol ß also after pre-treatment with 10 μM Olaparib: reduced); 3 h, 4°C; Western blot.

Results are given in words; binding and its absence hold for the method and conditions named. Binding seen in cells or lysates may run through a third protein. Some results given as binding are weak or reduced against the parent protein; the word gives no strength.

For “p21 fused to GFP (p21-GFP) (from UniProt P38936 1-164)”, in assay [1], the binding entry was “binds”.
In the case of “XRCC1, endogenous in HeLa cells (from UniProt P18887 1-633)”, the binding entry in assay [1] is on record as “binds”.
On to “p21^CDKN1A, endogenous in LF-1 human fibroblasts (from UniProt P38936 1-164)”, for which the binding entry is on record as “binds” in assay [2], “no binding” in assay [3] and “binds” in assay [4].
Take “XRCC1, endogenous in LF-1 human fibroblasts (from UniProt P18887 1-633)”: in assay [4], the binding entry is “binds”.

The values are drawn from publication PMC4701469.
